# In the supplement of paper PMC3334620:
# In all, about 33,000 sequences were measured (“E-score (-0.5 to 0.5)”: median about -0.036, highest 2% from about 0.37 on). The list shows a part of the results.
# Biological target: T1, Yer064c (UniProt P40041)
# T1 sequence: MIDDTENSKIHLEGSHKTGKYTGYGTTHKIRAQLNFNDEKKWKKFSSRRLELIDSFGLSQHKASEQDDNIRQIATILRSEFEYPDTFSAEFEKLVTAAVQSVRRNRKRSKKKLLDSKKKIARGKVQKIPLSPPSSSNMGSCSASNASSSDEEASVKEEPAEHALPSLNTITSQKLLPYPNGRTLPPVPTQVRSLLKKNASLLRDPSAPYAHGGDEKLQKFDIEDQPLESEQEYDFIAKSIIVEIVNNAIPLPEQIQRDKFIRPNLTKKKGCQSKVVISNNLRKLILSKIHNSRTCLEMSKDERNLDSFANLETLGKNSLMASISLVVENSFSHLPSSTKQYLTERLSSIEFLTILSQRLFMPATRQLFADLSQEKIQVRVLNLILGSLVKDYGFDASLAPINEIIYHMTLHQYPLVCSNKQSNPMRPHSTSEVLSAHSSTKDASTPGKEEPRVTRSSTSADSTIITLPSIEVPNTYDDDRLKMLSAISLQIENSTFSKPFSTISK
# Test: PBM E-score (8-mer binding enrichment) (E-score (-0.5 to 0.5)); higher = stronger / more preferred TF binding; most listed sequences are background and not binding sites
# Conditions: protein concentration: 200 nM; construct: GST-full length
# Procedure, shortened: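 E-scores (a modified Wilcoxon-Mann-Whitney statistic) were assigned by the Universal PBM Analysis Suite to every ungapped eight-base word pooled with its reverse complement. The input came from universal all-10-mer Agilent arrays made double-stranded by primer extension and probed with GST-tagged yeast transcription factors at about 100-200 nM. Fluorescent anti-GST detected bound protein, and masliner normalised the scans.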
row,Sequence,PBM E-score
1,AGCCATTC,0.0873
2,AGGAGAAG,-0.128
3,GACATCTA,0.0716
4,CCACATGG,0.0871
5,CACGTGTA,-0.0349
6,ATCCCCAT,-0.112
7,CCGTACGC,-0.238
8,ATGTATGC,-0.102
9,AAGCCGGT,-0.264
10,GCGGGAGC,-0.0362
11,CAAGGGAG,-0.0243
12,TATTGTGA,0.253
13,AGCTTCGC,-0.155
14,AAAGACTA,0.392
15,CGTCCTAG,-0.109
16,CCCCATCA,-0.309
17,CAGCTATC,-0.212
18,ATCTAATA,0.125
19,CGTAGATC,-0.189
20,ACTAGACA,0.138
21,AGAGGATA,-0.17
22,GTTCCGGA,-0.091

row,Sequence,PBM E-score
1,CCTGCCAG,-0.212
2,ACGTTCCG,-0.232
3,AGTGGTAC,-0.103
4,ATGATCCG,-0.0261
5,ATGCAGCG,-0.12
6,AAAACGAC,0.14
7,AGAATAGG,-0.16
8,GCTGTGCA,-0.191
9,GGCAGGCC,-0.192
10,CCCCCCGC,-0.157
11,GGCCAGCA,-0.256
12,CAAAGGTG,-0.0619
13,CCATCAGC,-0.05
14,CCCAATCC,-0.0499
15,GGAGACAA,-0.173
16,AATCCTAT,0.115
17,CCAGGTTC,-0.291
18,GCGACCCA,-0.174
19,CTTTCCTC,-0.116
20,CCCACAAC,-0.0803
21,CGGTGGGA,0.0414
22,AAAACTCT,-0.168

row,Sequence,PBM E-score
1,CACTCGCA,-0.00534
2,ATAGGCCA,-0.285
3,AGCGTGCA,0.0006
4,ATTCACTG,0.138
5,CTAATGGC,-0.0455
6,GATACTGC,-0.0585
7,CACCGGGG,-0.266
8,AGACGTCC,-0.0208
9,ATCTGAAA,0.104
10,CCCTGTAG,-0.0674
11,GACAAGTA,-0.0277
12,ACAAACCG,-0.0275
13,CGCTCGAA,-0.141
14,AGGTCCTG,-0.0669
15,AAACCACA,-0.0212
16,AGAGCTTC,-0.152
17,ACGAAACG,-0.116
18,TAGATAAA,0.192
19,GGTGGATA,-0.0384
20,CACTCAAC,0.0472
21,GACTAACC,0.44
22,GCTGCTTA,-0.0722

row,Sequence,PBM E-score
1,ACATAGTG,0.0787
2,CCAATTGG,0.0365
3,CCGTTTTA,-0.0266
4,CAACCCCC,-0.166
5,CGGCCCGA,-0.157
6,CAAGTCCA,-0.0608
7,CAACACGA,-0.0636
8,CGAATAAG,0.0604
9,AACGCAAG,-0.12
10,GTATCGTA,-0.0408
11,TCGACCGA,-0.144
12,ACCACGCC,-0.0301
13,GCCTACGA,-0.0898
14,AAGCAAGA,-0.0626
15,ACCATTGA,0.196
16,CTTATAGA,-0.0339
17,TAAGTCAA,0.344
18,GACAATCC,-0.13
19,ACCGGGCG,-0.143
20,ATGGTTTC,0.169
